The whole screen tested about 310,000 compounds, of which about 2,200 (0.71%) showed an effect of 50% or more. Effects have a minus sign here. Some of the results follow.
Each compound was assayed against human ether-à-go-go-related gene (hERG) potassium channel (human, UniProt Q12809) (assay: primary screen, population patch clamp on CHO cells stably expressing hERG).
human ether-à-go-go-related gene (hERG) potassium channel, sequence (Q12809 whole entry, looked up): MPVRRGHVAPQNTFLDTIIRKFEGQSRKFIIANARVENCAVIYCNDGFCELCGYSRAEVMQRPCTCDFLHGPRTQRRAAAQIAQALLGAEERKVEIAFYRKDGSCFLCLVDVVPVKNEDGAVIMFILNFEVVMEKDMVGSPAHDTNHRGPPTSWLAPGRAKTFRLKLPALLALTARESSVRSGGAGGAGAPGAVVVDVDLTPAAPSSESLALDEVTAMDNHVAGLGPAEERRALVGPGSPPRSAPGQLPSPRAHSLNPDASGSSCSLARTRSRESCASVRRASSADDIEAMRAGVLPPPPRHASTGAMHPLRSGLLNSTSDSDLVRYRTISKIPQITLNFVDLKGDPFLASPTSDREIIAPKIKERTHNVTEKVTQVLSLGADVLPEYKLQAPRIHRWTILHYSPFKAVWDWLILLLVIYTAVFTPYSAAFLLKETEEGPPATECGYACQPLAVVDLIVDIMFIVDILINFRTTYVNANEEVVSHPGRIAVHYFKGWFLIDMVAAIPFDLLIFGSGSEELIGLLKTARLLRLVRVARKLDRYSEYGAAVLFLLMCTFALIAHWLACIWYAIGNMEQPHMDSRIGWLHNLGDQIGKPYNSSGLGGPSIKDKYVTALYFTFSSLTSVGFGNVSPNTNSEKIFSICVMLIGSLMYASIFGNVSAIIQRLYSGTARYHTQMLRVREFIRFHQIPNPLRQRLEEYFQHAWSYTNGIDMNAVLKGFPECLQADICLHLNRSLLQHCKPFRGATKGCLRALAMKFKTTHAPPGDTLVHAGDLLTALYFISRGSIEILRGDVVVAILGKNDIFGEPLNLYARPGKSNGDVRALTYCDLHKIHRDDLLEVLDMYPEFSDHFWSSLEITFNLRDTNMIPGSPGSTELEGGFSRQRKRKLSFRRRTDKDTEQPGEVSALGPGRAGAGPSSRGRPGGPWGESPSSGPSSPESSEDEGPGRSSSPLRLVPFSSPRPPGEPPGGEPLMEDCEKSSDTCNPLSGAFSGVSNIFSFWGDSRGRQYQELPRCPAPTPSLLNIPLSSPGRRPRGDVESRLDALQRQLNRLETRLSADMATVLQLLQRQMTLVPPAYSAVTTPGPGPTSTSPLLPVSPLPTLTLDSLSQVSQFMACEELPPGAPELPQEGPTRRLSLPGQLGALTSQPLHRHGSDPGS

Row | Compound | hERG current change (%, negative = inhibition) at 1uM [%]
1 | Cc1cccc(Cl)c1NC(=S)NCCc1ccccn1 | 12
2 | Cc1cc(Cl)c(S(=O)(=O)N2CCSCC2)cc1OCC(=O)NC1CCCCC1 | -0.828
3 | O=c1cc(C(F)(F)F)[nH]c(=S)n1-c1ccccc1 | 23.5
4 | NNc1nc(-c2ccccc2)cc(-c2ccc(Br)cc2)n1 | 9.29
5 | CCCc1nnc2c(N(C)S(=O)(=O)c3ccc(C)cc3)nc3ccccc3n12 | 4.28
6 | FC(F)(F)c1ccc(Cl)c(N/N=C/c2ccc(N3CCOCC3)s2)c1 | 12.5
7 | Clc1ccccc1OCc1nc(-c2ccc(Br)o2)no1 | 13.3
8 | C[C@@]12CCC=C[C@H]1[C@H](c1ccoc1)N(Cc1ccccc1)C2=O | 1.22
9 | COCCN1C(=O)C(O)=C(C(=O)c2cccs2)C1c1ccccc1 (stereo not shown) | 11.1
10 | CCCC1CCc2c(sc(NC(=O)OCC)c2C#N)C1 (stereo not shown) | 1.41
11 | CC1CCCCN1c1nnc(NC(=O)Cn2c(=O)oc3ccccc32)s1 (stereo not shown) | 15.3
12 | CCc1ccc(OCC(=O)NNC(=O)c2ccc(NC(=O)C3CC3)cc2)cc1 | 11.9
13 | O=C(COc1ccc(F)cc1Cl)N(Cc1nnc(-c2ccccc2Cl)o1)C1CC1 | 0.721
14 | CCNc1nc(NCC)nc(Oc2ccc(OCC)nn2)n1 | 18.1
15 | N#C/C(=C\c1ccc(O)cc1)C(=O)N1CCCC1 | 6.83
16 | Cc1cc2c(s1)Nc1ccccc1N=C2N1CCN(C)CC1 | -7.44
17 | Cc1ccc(CSc2ncnc3c2cnn3-c2ccc(C)cc2)cc1 | 19.3
18 | Cn1c(=O)c(=O)n(C)c2cc(S(=O)(=O)NCc3ccc(Cl)cc3)ccc21 | 1.52
19 | O=C(CCc1ccccc1)N1CCN(S(=O)(=O)c2cccs2)CC1 | -4.2
20 | Cc1ccc(SCc2cc(=O)[nH]c(N3CCN(Cc4ccc5c(c4)OCO5)CC3)n2)cc1 | 5.53
21 | O=c1c2c3n(c(=S)nc2[nH]n1-c1ccccc1)CCCCC3 | 8.28
22 | COc1ccc(-c2nc(C)c(C(C)=O)n2O)cc1 | 18.5
23 | COc1cccc(C2=NOC(C(=O)Nc3cccnc3)C2)c1 (stereo not shown) | 11.8

Row | Compound | hERG current change (%, negative = inhibition) at 1uM [%]
24 | COc1cc(-c2noc(CCCC(=O)NCc3ccco3)n2)cc(OC)c1OC | 6.36
25 | CC(=O)Nc1ccc(S(=O)(=O)NCC(=O)OC(C)c2ccccc2Cl)cc1 (stereo not shown) | 3.21
26 | O=C(CCc1nc2ccccc2c(=O)[nH]1)OCC(=O)N1CCc2ccccc21 | 9.67
27 | Cc1ccc(C)c(NC(=O)CN(C)C(=O)c2cccc(S(=O)(=O)N3CCN(Cc4ccccc4)CC3)c2)c1 | 3.09
28 | CC(C)C(NC(=O)c1ccccc1)C(=O)NCC(c1ccccc1)N(C)C (stereo not shown) | 9.28
29 | COc1ccc(NC(=O)Nc2nnc(Cc3ccccc3)s2)cc1 | 6.42
30 | O=C1CC(C(=O)O)C2(CCCC2)O1 (stereo not shown) | 5.63
31 | O=C(CN(Cc1ccc(F)cc1)C(=O)CCC(=O)Nc1nccs1)NCC1CCCO1 (stereo not shown) | 16.7
32 | O=C(Oc1ccc2c(c1)OCO2)c1cccs1 | 7.85
33 | O=C(c1cc(COc2ccc(F)cc2Cl)on1)N1C[C@H]2CC[C@H]1C2 | 6.77
34 | O=C(CCC(=O)Nc1cccc([N+](=O)[O-])c1)NCc1ccccc1 | 10.2
35 | CCn1cc(/C=C/C(=O)Nc2ccn(Cc3c(F)c(F)c(F)c(F)c3F)n2)cn1 | 4.65
36 | COc1cccc(NC(=O)COC(=O)c2ccccc2C(=O)N(C)c2ccccc2)c1 | 3.72
37 | CCCCN(CC(=O)Nc1c(C)cccc1CC)C(=O)SCC | 13.2
38 | COc1cc(CC(=O)N(C)CC(=O)Nc2cc(C)ccc2C)cc(OC)c1OC | 13.4
39 | Cc1nnc(NC(=O)COc2ccccc2)s1 | 10.4
40 | O=C(Nn1cnnc1)C(c1ccccc1)c1ccccc1 | 4.39
41 | C/C(=N\NC(=O)C(=O)Nc1cccc(Cl)c1)c1ccncc1 | 0.238
42 | O=C1NC(=Nc2ccccc2)S/C1=C\c1cccnc1 | 5.01
43 | Cc1nc2cc(Nc3nnc(-c4ccccc4)c4ccccc34)ccc2n1C | -17.8
44 | CCN(CC)S(=O)(=O)c1cc(NC(=O)CNc2cccc(S(=O)(=O)N3CCOCC3)c2)ccc1C | 18.1
45 | CCOC(=O)c1sc(NC(=O)c2ccc(Br)o2)cc1C | -1.48
46 | CCc1ccc(NC(=O)C(=O)NNC(=O)c2ccc(OC)cc2)cc1 | 7.36

From publication PMC4336329 (PLoS ONE, 2015)
